According to the supplement of paper PMC4604168 (melanoma cell lines):
Some of the results follow. Single values are uncertain, as repeats are few or missing.

Key:
Assay in all cases: cell count relative to DMSO control; melanoma cells; higher = more viable cells
MZ2-MEL = settings: library dose: low library concentration; 72 h
MeWo = settings: library dose: low library concentration; 72 h
RPMI7951 = settings: library dose: low library concentration; 72 h
RVH-421 = settings: library dose: low library concentration; 72 h
SkMel28 = settings: library dose: low library concentration; 72 h
SkMel2 = settings: library dose: low library concentration; 72 h
SkMel30 = settings: library dose: low library concentration; 72 h
UACC62 = settings: library dose: low library concentration; 72 h
WM115 = settings: library dose: low library concentration; 72 h
WM1716 = settings: library dose: low library concentration; 72 h
WM1745 = settings: library dose: low library concentration; 72 h
WM3526 = settings: library dose: low library concentration; 72 h
WM3619 = settings: library dose: low library concentration; 72 h
WM451Lu = settings: library dose: low library concentration; 72 h
501Mel = settings: library dose: standard library concentration; 72 h
A101D = settings: library dose: standard library concentration; 72 h
A2058 = settings: library dose: standard library concentration; 72 h
A375 = settings: library dose: standard library concentration; 72 h
SkMel5 = settings: library dose: low library concentration; 72 h
UACC257 = settings: library dose: low library concentration; 72 h

SMILES | cell count (MZ2-MEL) | cell count (MeWo) | cell count (RPMI7951) | cell count (RVH-421) | cell count (SkMel28) | cell count (SkMel2) | cell count (SkMel30) | cell count (UACC62) | cell count (WM115) | cell count (WM1716) | cell count (WM1745) | cell count (WM3526) | cell count (WM3619) | cell count (WM451Lu) | cell count (501Mel) | cell count (A101D) | cell count (A2058) | cell count (A375) | cell count (SkMel5) | cell count (UACC257)
CNC(=O)c1cc(Oc2ccc(NC(=O)Nc3ccc(Cl)c(C(F)(F)F)c3)cc2)ccn1 [sorafenib] + Nc1nc(F)nc2c1ncn2[C@@H]1O[C@H](CO)[C@@H](O)[C@@H]1O [fludarabine] (first compound 0.4 µM, partner dose 0.2 µM) | 94.2% | 48.4% | 83% | 103% | 85.8% | 14.3% | 27.2% | 80.9% | 101% | 91.8% | 93.9% | 47.4% | 87.4% | 48.4% |  |  |  |  |  | 
C[C@@H](Oc1cc(-c2cnn(C3CCNCC3)c2)cnc1N)c1c(Cl)ccc(F)c1Cl [Crizotinib] + C=C(c1ccc(C(=O)O)cc1)c1cc2c(cc1C)C(C)(C)CCC2(C)C [Bexarotene] (first compound 0.2 µM, partner dose 2 µM) | 90.7% | 80.5% | 84.3% | 95.5% | 79.9% | 87.7% | 95.4% | 74.2% | 81.4% | 80.4% | 96.1% | 82.2% | 128% | 84% |  |  |  |  |  | 
C[C@@H](Oc1cc(-c2cnn(C3CCNCC3)c2)cnc1N)c1c(Cl)ccc(F)c1Cl [Crizotinib] + CO[C@H]1C[C@@H]2CC[C@@H](C)[C@@](O)(O2)C(=O)C(=O)N2CCCC[C@H]2C(=O)O[C@H]([C@H](C)C[C@@H]2CC[C@@H](OCCO)[C@H](OC)C2)CC(=O)[C@H](C)/C=C(\C)[C@@H](O)[C@@H](OC)C(=O)[C@H](C)C[C@H](C)/C=C/C=C/C=C/1C [everolimus] (first compound 0.2 µM, partner dose 0.02 µM) | 78.6% | 63% | 76.7% | 72.1% | 36.6% |  | 60.5% | 60.3% | 73% | 73.2% | 87.3% | 68.3% | 73.6% | 91.3% |  |  |  |  |  | 
CNC(=O)c1cc(Oc2ccc(NC(=O)Nc3ccc(Cl)c(C(F)(F)F)c3)cc2)ccn1 [sorafenib] + C=C(c1ccc(C(=O)O)cc1)c1cc2c(cc1C)C(C)(C)CCC2(C)C [Bexarotene] (first compound 0.4 µM, partner dose 2 µM) | 98.6% | 85.3% | 87.2% | 94.3% | 89.3% | 93.2% | 83.8% | 97.3% | 108% | 91.3% | 85.2% | 98% | 105% | 93.6% |  |  |  |  |  | 
C[C@@H](Oc1cc(-c2cnn(C3CCNCC3)c2)cnc1N)c1c(Cl)ccc(F)c1Cl [Crizotinib] + OCc1c[nH]c2ccccc12 [Indole-3-carbinol] (first compound 0.2 µM, partner dose 0.8 µM) | 92.6% | 89.9% | 100% | 82.7% | 99.5% | 87.1% | 88.7% | 106% | 90.4% | 102% | 95% | 114% | 114% | 83.2% |  |  |  |  |  | 
C=CCNC1=C2C[C@@H](C)C[C@H](OC)[C@H](O)[C@@H](C)/C=C(\C)[C@H](OC(N)=O)[C@@H](OC)/C=C\C=C(/C)C(=O)NC(=CC1=O)C2=O [Tanespimycin] + Nc1cccc2c1CN(C1CCC(=O)NC1=O)C2=O [lenalidomide] (first compound 0.002 µM, partner dose 1 µM) | 101% | 105% | 82.2% | 89.3% | 84.7% | 100% | 97% | 96.1% | 91.7% | 102% | 95.1% | 83.4% | 74.7% | 87.2% |  |  |  |  |  | 
CS(=O)(=O)CCNCc1ccc(-c2ccc3ncnc(Nc4ccc(OCc5cccc(F)c5)c(Cl)c4)c3c2)o1 [lapatinib] + OCc1c[nH]c2ccccc12 [Indole-3-carbinol] (first compound 0.8 µM, partner dose 0.8 µM) | 90.8% | 86.4% | 79.9% | 87.5% | 68.9% | 92.6% | 82.1% | 88.8% | 85.8% | 88.3% | 100% | 90.9% | 83.8% | 87.6% |  |  |  |  |  | 
CN1CCN(c2ccc3nc(-c4c(N)c5c(F)cccc5[nH]c4=O)[nH]c3c2)CC1 [Dovitinib] + Clc1ccc(Nc2nnc(Cc3ccncc3)c3ccccc23)cc1 [vatalanib] (first compound 0.1 µM, partner dose 2 µM) | 91.4% | 58.5% | 89.7% | 79.1% | 81.2% | 95.1% | 56.8% | 92.9% | 87.8% | 93.1% | 77.2% | 79.1% | 86.5% | 81.3% |  |  |  |  |  | 
CNC(=O)c1cc(Oc2ccc(NC(=O)Nc3ccc(Cl)c(C(F)(F)F)c3)cc2)ccn1 [sorafenib] + Cn1nnc2c(C(N)=O)ncn2c1=O [temozolomide] (first compound 0.4 µM, partner dose 2 µM) | 103% | 96% | 77.1% | 76.7% | 78.2% | 91% | 116% | 74.8% | 101% | 80.2% | 109% | 94.7% | 90.5% | 82.2% |  |  |  |  |  | 
CNC(=O)c1cc(Oc2ccc(NC(=O)Nc3ccc(Cl)c(C(F)(F)F)c3)cc2)ccn1 [sorafenib] + C[C@]1(c2nc3c(C(N)=O)cccc3[nH]2)CCCN1 [Veliparib] (first compound 0.4 µM, partner dose 1.4 µM) | 91.8% | 97.8% | 76.5% | 70.1% | 90.5% | 95.7% | 90.2% | 73.6% | 90.9% | 92.1% | 100% | 110% | 117% | 109% |  |  |  |  |  | 
C[C@@H](Oc1cc(-c2cnn(C3CCNCC3)c2)cnc1N)c1c(Cl)ccc(F)c1Cl [Crizotinib] + Nc1ncn([C@H]2C[C@H](O)[C@@H](CO)O2)c(=O)n1 [decitabine] (first compound 0.2 µM, partner dose 0.1 µM) | 85.4% | 96.7% | 74.6% | 85.3% | 98.3% | 88.5% | 111% | 103% | 91.2% | 94.6% | 103% | 124% | 110% | 99.5% |  |  |  |  |  | 
CN1CCN(c2ccc3nc(-c4c(N)c5c(F)cccc5[nH]c4=O)[nH]c3c2)CC1 [Dovitinib] + COc1cc2ncnc(Nc3ccc(Oc4ccccc4)cc3)c2cc1OC [SrcI1] (first compound 0.5 µM, partner dose 10 µM) |  |  |  |  |  |  |  |  |  |  |  |  |  |  | 51.4% | 46.7% | 48.1% | 113% |  | 
CS(=O)(=O)CCNCc1ccc(-c2ccc3ncnc(Nc4ccc(OCc5cccc(F)c5)c(Cl)c4)c3c2)o1 [lapatinib] + Nc1cccc2c1CN(C1CCC(=O)NC1=O)C2=O [lenalidomide] (first compound 0.8 µM, partner dose 1 µM) |  | 99.6% | 89.8% | 94.9% | 93.7% | 97.1% | 87.2% | 106% | 94.8% | 81.2% | 81.4% | 78.3% | 97.2% | 107% |  |  |  |  |  | 
CN1CCN(c2ccc3nc(-c4c(N)c5c(F)cccc5[nH]c4=O)[nH]c3c2)CC1 [Dovitinib] + CCc1ccc(CCOc2ccc(CC3SC(=O)NC3=O)cc2)nc1 [pioglitazone] (first compound 0.5 µM, partner dose 10 µM) |  |  |  |  |  |  |  |  |  |  |  |  |  |  | 44.2% | 57.2% | 40.3% | 83.8% |  | 
CS(=O)(=O)CCNCc1ccc(-c2ccc3ncnc(Nc4ccc(OCc5cccc(F)c5)c(Cl)c4)c3c2)o1 [lapatinib] + O=c1cc(-c2cccc3c2Sc2ccccc2S3)oc(N2CCOCC2)c1 [KU55933] (first compound 0.8 µM, partner dose 1 µM) |  | 99% | 78.9% | 116% | 105% | 87.2% | 89% | 88.3% | 96.4% | 110% | 97.6% | 78.2% | 96% | 95.5% |  |  |  |  | 85.9% | 126%
C[C@@H](Oc1cc(-c2cnn(C3CCNCC3)c2)cnc1N)c1c(Cl)ccc(F)c1Cl [Crizotinib] + COc1cc(Nc2ncc(F)c(Nc3ccc4c(n3)NC(=O)C(C)(C)O4)n2)cc(OC)c1OC [Tamatinib] (first compound 0.2 µM, partner dose 0.4 µM) |  | 80.3% | 91.4% | 100% | 74.7% |  | 87.8% | 67.4% | 86.5% | 87% | 62.3% | 82.6% | 106% | 93.4% |  |  |  |  | 84.1% | 64.1%
